The other results are listed elsewhere or left out. These are noisy estimates, calculated here from bound and input reads.
Target: T1, Pho4 (S. cerevisiae) (UniProt P07270)
T1 sequence: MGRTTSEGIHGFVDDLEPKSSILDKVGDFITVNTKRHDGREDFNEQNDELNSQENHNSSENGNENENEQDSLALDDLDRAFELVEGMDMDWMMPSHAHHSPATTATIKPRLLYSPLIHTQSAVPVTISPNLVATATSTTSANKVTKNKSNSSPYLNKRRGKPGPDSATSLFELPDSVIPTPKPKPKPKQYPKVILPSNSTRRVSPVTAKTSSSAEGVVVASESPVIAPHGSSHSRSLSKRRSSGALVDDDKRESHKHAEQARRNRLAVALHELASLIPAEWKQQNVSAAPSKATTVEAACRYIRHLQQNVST
Assay: relative binding free energy (BET-seq); higher = weaker binding
Conditions: reference: library average

Sequence	relative binding free energy
TTTGGCACGTGTAACA	0.05 kcal/mol
TGCGTCACGTGGGTTT	0.05 kcal/mol
TGTAACACGTGGCGGG	-0.07 kcal/mol
CGTTACACGTGGGTTA	-0.09 kcal/mol
AGTGTCACGTGGAGTC	0.06 kcal/mol
CAAAGCACGTGAGGGT	0.17 kcal/mol
TGGTTCACGTGCGAAG	0.08 kcal/mol
ACAGGCACGTGGGGAG	-0.3 kcal/mol
TAAGGCACGTGTATGG	-0.11 kcal/mol
AATGTCACGTGTTAAA	0.09 kcal/mol
GTAGACACGTGGTTGA	-0.02 kcal/mol
ATCGTCACGTGGTTTA	0.05 kcal/mol
GTGGGCACGTGTCGCT	-0.02 kcal/mol
GTCATCACGTGTAGGT	0.22 kcal/mol
TTGCACACGTGGTCGT	-0.04 kcal/mol
TTCTGCACGTGGGACT	0.02 kcal/mol
TTTACCACGTGTTTGG	0 kcal/mol
TGGGCCACGTGTATGT	0 kcal/mol
ACCTTCACGTGGTTGT	0.32 kcal/mol
AGTGGCACGTGAATGA	0.1 kcal/mol
TTTTGCACGTGCTGTT	-0.09 kcal/mol
AGGTGCACGTGTAGGT	-0.06 kcal/mol
ACTTGCACGTGGTGTG	-0.13 kcal/mol
TGGATCACGTGTAGCG	0.18 kcal/mol
TGCAACACGTGTTATT	0.05 kcal/mol
GTTGGCACGTGATTAG	0.03 kcal/mol

Sequence	relative binding free energy
AAATGCACGTGGACTT	0.2 kcal/mol
GCATGCACGTGGGTGG	-0.05 kcal/mol
TTAGGCACGTGTGATG	-0.06 kcal/mol
TGATGCACGTGTAGGA	-0.06 kcal/mol
GTGGCCACGTGTGGAG	0.01 kcal/mol
AGCGTCACGTGATGAT	0.29 kcal/mol
GGGTTCACGTGTTGGT	0.34 kcal/mol
ATTAACACGTGTGTAT	0.07 kcal/mol
GTGATCACGTGTAGAG	0.12 kcal/mol
GTGTTCACGTGGTGAT	0.17 kcal/mol
TATTGCACGTGATTAA	-0.06 kcal/mol
TTGCGCACGTGTTAGT	-0.01 kcal/mol
GACATCACGTGTAGGT	0.19 kcal/mol
TTAGGCACGTGGAAGT	-0.04 kcal/mol
GGAGTCACGTGGTGTT	0.19 kcal/mol
TGGGACACGTGTACGG	0.11 kcal/mol
GATTTCACGTGATGGT	0.41 kcal/mol
GATTGCACGTGTGGTC	0.14 kcal/mol
ATAGGCACGTGGGGTG	-0.32 kcal/mol
CGCTTCACGTGGGGTA	0.08 kcal/mol
AGTAACACGTGTGATT	0.05 kcal/mol
ATGACCACGTGGAGTG	-0.03 kcal/mol
TGCAGCACGTGTTTTT	-0.12 kcal/mol
GGGATCACGTGGAGTT	0.19 kcal/mol
GTAAGCACGTGGGTCA	-0.15 kcal/mol
GACTTCACGTGGGGTC	0.36 kcal/mol

Sequence	relative binding free energy
GGCTTCACGTGAGGGC	0.4 kcal/mol
TGTCTCACGTGTTGGG	0.19 kcal/mol
TAAGGCACGTGGATTG	-0.01 kcal/mol
GTCGTCACGTGTATGT	-0.01 kcal/mol
AAAGGCACGTGGAGGA	-0.08 kcal/mol
GGTGGCACGTGTATTT	0.03 kcal/mol
GGTTGCACGTGTTTCA	-0.01 kcal/mol
CAGAGCACGTGGTGAA	0.16 kcal/mol
GTTATCACGTGGTTAA	0.21 kcal/mol
GTAGACACGTGTATAG	0.05 kcal/mol
GAGTTCACGTGGGGTG	0.19 kcal/mol
TTTTGCACGTGAGGAG	0.3 kcal/mol
ATGTTCACGTGCGAGG	0.16 kcal/mol
TTACGCACGTGAAGGT	0.34 kcal/mol
CATTTCACGTGATTGG	0.36 kcal/mol
GGTTACACGTGGGGCA	-0.03 kcal/mol
CGGAGCACGTGGGGTA	-0.27 kcal/mol
CAGTGCACGTGTTTGA	-0.03 kcal/mol
GTTTGCACGTGTCTTG	0.04 kcal/mol
ATAGGCACGTGCTTGT	-0.16 kcal/mol
ATTGGCACGTGGTGCC	-0.24 kcal/mol
AGGGACACGTGGACTG	0.11 kcal/mol
AATGGCACGTGCGTGT	-0.37 kcal/mol
GGCCGCACGTGTTGTG	-0.12 kcal/mol
AGGTGCACGTGGTAAC	0.09 kcal/mol
GCTAGCACGTGGGATT	-0.01 kcal/mol

Sequence	relative binding free energy
CGGGGCACGTGTGTTC	0.05 kcal/mol
AGAAACACGTGTAGGT	0.08 kcal/mol
TTTTGCACGTGCGTGG	-0.13 kcal/mol
TGTGTCACGTGGAGAA	0.17 kcal/mol
GTAAGCACGTGGGGAG	-0.03 kcal/mol
TAGGGCACGTGGCGAT	-0.15 kcal/mol
TTAGACACGTGGCTGT	0.02 kcal/mol
TGTAACACGTGGGGGT	-0.07 kcal/mol
TTTTACACGTGAACTT	0.18 kcal/mol
GGTGACACGTGAATGG	0.23 kcal/mol
AATATCACGTGAGGGT	0.24 kcal/mol
TTTGCCACGTGCGGGG	-0.2 kcal/mol
AGGGCCACGTGCGTTG	-0.21 kcal/mol
TTGGACACGTGTTACG	0.04 kcal/mol
AGTGTCACGTGCGTGA	-0.06 kcal/mol
GATGTCACGTGGTCAT	0.12 kcal/mol
ACATGCACGTGGAGTG	-0.06 kcal/mol
AAGTACACGTGGGCTG	-0.02 kcal/mol
GAGTTCACGTGGTAGG	0.27 kcal/mol
AGGGTCACGTGATATT	0.21 kcal/mol
AGAGTCACGTGGGCGG	0 kcal/mol
GTCGTCACGTGTATTG	0.13 kcal/mol
ATATTCACGTGGGCGC	0.18 kcal/mol
GGGTGCACGTGGTTTT	0.01 kcal/mol
GATGTCACGTGGGCGT	0 kcal/mol
GTAAGCACGTGGTGGT	-0.15 kcal/mol

Sequence	relative binding free energy
AGGGCCACGTGGATTG	-0.16 kcal/mol
TTGTTCACGTGCAGAG	0.28 kcal/mol
CGTGCCACGTGGTGGT	-0.15 kcal/mol
TGCAACACGTGGAGGT	-0.08 kcal/mol
GGAAACACGTGGGTGG	-0.18 kcal/mol
AGGTTCACGTGGGTTG	0.19 kcal/mol
ATCGGCACGTGTGGTA	0.03 kcal/mol
GTTTCCACGTGGTCTG	0.1 kcal/mol
GTAGTCACGTGAGAGT	0.33 kcal/mol
GTCAGCACGTGCGTGT	-0.02 kcal/mol
TTTTGCACGTGCGGTT	0.01 kcal/mol
TAGGACACGTGTTTAA	-0.01 kcal/mol
TAGTTCACGTGGTGCG	0.21 kcal/mol
TTAAACACGTGTTGAT	0 kcal/mol
GTTTGCACGTGAAGTC	0.36 kcal/mol
GCCTGCACGTGTGTGT	0.02 kcal/mol
GGGATCACGTGGAGCT	0.15 kcal/mol
AGTCTCACGTGTAGGG	0.03 kcal/mol
TATGGCACGTGCGGCA	-0.14 kcal/mol
TACGTCACGTGAGCGT	0.14 kcal/mol
AAGGTCACGTGGTTCA	0.03 kcal/mol
AAGGTCACGTGAAGTT	0.3 kcal/mol
TTGTTCACGTGAATTG	0.29 kcal/mol
TGTTGCACGTGTCGTC	0.06 kcal/mol
AGTTCCACGTGTGCGG	0.05 kcal/mol
CAAGGCACGTGTTTTT	-0.07 kcal/mol

Sequence	relative binding free energy
AAAGCCACGTGTTGTT	-0.09 kcal/mol
TTGTCCACGTGAGGGT	0.12 kcal/mol
GGGGTCACGTGGGCGC	0.02 kcal/mol
CTAATCACGTGTGTAT	0.24 kcal/mol
GTTAGCACGTGGCGTC	-0.06 kcal/mol
AGTAACACGTGTTTTG	0.08 kcal/mol
TTATGCACGTGATTAT	0.11 kcal/mol
GTGTGCACGTGTGGAC	0.12 kcal/mol
TGGCTCACGTGTGTTT	0.29 kcal/mol
TTGGGCACGTGTTGGT	0.02 kcal/mol
TAGTGCACGTGGTACA	-0.16 kcal/mol
ATCGGCACGTGAAGGG	0.09 kcal/mol
TTGCACACGTGGAGTG	-0.11 kcal/mol
TGCTTCACGTGTTATT	0.24 kcal/mol
GGGGTCACGTGGTCCA	0.13 kcal/mol
GAGGGCACGTGGATAT	-0.06 kcal/mol
AGTTTCACGTGTAGGA	0.36 kcal/mol
GCTTGCACGTGAGGTG	0.21 kcal/mol
TATGGCACGTGCTTTG	-0.3 kcal/mol
GGGTTCACGTGTGTGC	0.37 kcal/mol
ACGTGCACGTGCTTGT	-0.1 kcal/mol
CTTCTCACGTGGTTTG	0.21 kcal/mol
AGTGGCACGTGTATTT	0.08 kcal/mol
TGGAGCACGTGGCTAT	-0.12 kcal/mol
TGGGGCACGTGTTATG	-0.07 kcal/mol
GTGCGCACGTGGACGG	-0.23 kcal/mol

Sequence	relative binding free energy
ATATGCACGTGAGTAA	0.1 kcal/mol
TTAAGCACGTGTAAAT	-0.01 kcal/mol
TGGATCACGTGGTAGG	0.01 kcal/mol
TTATTCACGTGGGGGG	0.17 kcal/mol
TTAAGCACGTGGCGAG	-0.2 kcal/mol
GTAATCACGTGTGTCA	0.2 kcal/mol
GGATTCACGTGGGTCA	0.12 kcal/mol
AGAGGCACGTGAAGAT	0.15 kcal/mol
ACTTGCACGTGTGGAT	0.06 kcal/mol
TGCAACACGTGTGGTA	0.1 kcal/mol
TTGGGCACGTGCAGAT	-0.03 kcal/mol
TTCAGCACGTGGCGGG	-0.14 kcal/mol
TGAGCCACGTGGTTGT	-0.17 kcal/mol
TTGGACACGTGGTCAT	-0.05 kcal/mol
CTTGTCACGTGCTTGT	0.01 kcal/mol
ATGAGCACGTGATGTT	0.04 kcal/mol
AATGGCACGTGGGGCG	-0.35 kcal/mol
CATAGCACGTGGTGGG	-0.07 kcal/mol
CGGTTCACGTGGGTCG	0.13 kcal/mol
TCGTGCACGTGAGAGT	0.21 kcal/mol
TCCGTCACGTGGGGGT	-0.08 kcal/mol
GTGGACACGTGTGATT	0.16 kcal/mol
ATATGCACGTGGTCGG	-0.2 kcal/mol
TTTCGCACGTGGGTTT	-0.13 kcal/mol
CTGGTCACGTGTGTGT	0.05 kcal/mol
GGGTTCACGTGCTTAG	0.44 kcal/mol

Sequence	relative binding free energy
TGTTGCACGTGGCGTA	-0.03 kcal/mol
ATAAACACGTGGGCTG	-0.04 kcal/mol
CGTAACACGTGGGGTA	-0.27 kcal/mol
GATGTCACGTGTGATT	0.29 kcal/mol
CTAATCACGTGGTAGG	0.16 kcal/mol
GGCGCCACGTGTCGGG	0.11 kcal/mol
TATAGCACGTGGATTT	0 kcal/mol
AGGGTCACGTGTTAAG	0.17 kcal/mol
TGGGCCACGTGGAAGG	-0.06 kcal/mol
TTGTACACGTGGAAAC	0.37 kcal/mol
GCTGGCACGTGAGGAG	0.1 kcal/mol
TAGGACACGTGTGTGC	0.04 kcal/mol
CGGAGCACGTGGTGAT	-0.18 kcal/mol
TAATTCACGTGTTGCT	0.28 kcal/mol
TGGGGCACGTGGGCAC	-0.35 kcal/mol
AGATCCACGTGTTTGT	0.09 kcal/mol
GTGGTCACGTGTGGCA	0.23 kcal/mol
GGGGGCACGTGTGTTA	-0.01 kcal/mol
AGGCACACGTGCTTGG	0.03 kcal/mol
TGTATCACGTGAACTT	0.15 kcal/mol
GCTTGCACGTGAATGG	0.21 kcal/mol
GATATCACGTGAGGTC	0.25 kcal/mol
GGTTACACGTGTGGGA	0.32 kcal/mol
CGTGCCACGTGTAGGG	0.02 kcal/mol
ACTTGCACGTGGAGTG	-0.09 kcal/mol
CTCGTCACGTGGTAGT	0.03 kcal/mol

Sequence	relative binding free energy
GCAGTCACGTGGGGGA	0.15 kcal/mol
AGTGGCACGTGGCGTA	-0.21 kcal/mol
TAATGCACGTGGGGTG	-0.21 kcal/mol
TTAGTCACGTGCGTGC	-0.04 kcal/mol
TCTGGCACGTGGAGTG	-0.09 kcal/mol
GGCAGCACGTGCGGGT	-0.18 kcal/mol
ATTACCACGTGATTGT	0.1 kcal/mol
AGTAGCACGTGGGTCA	-0.32 kcal/mol
GTAGGCACGTGATCGT	0.06 kcal/mol
TTATGCACGTGAATCG	0.23 kcal/mol
ACGGTCACGTGAGTTT	0.37 kcal/mol
GTAGACACGTGTGCTG	-0.07 kcal/mol
GGAGCCACGTGTGTAG	-0.15 kcal/mol
TTTTACACGTGTTTAT	0.16 kcal/mol
CGGTTCACGTGAGTAT	0.44 kcal/mol
TTGTTCACGTGTTTCC	0.29 kcal/mol
TACTTCACGTGTGTTA	0.21 kcal/mol
GTTGTCACGTGAGCGC	0.36 kcal/mol
GCATGCACGTGTCGGT	0.07 kcal/mol
TTTTTCACGTGAAATG	0.5 kcal/mol
CTTTGCACGTGACGGT	0.01 kcal/mol
GAAGACACGTGGGAGT	-0.13 kcal/mol

— the BET-seq Pho4 binding data (Le et al. 2018)
